# According to PubChem BioAssay AID2147 (National Center for Advancing Translational Sciences (NCATS), 2009):
# Screen size: about 230,000 compounds; about 3,600 (1.6%) were called active. Inconclusive means that the source gave no clear call. Such entries were picked first, then a sample of the others. Calls follow the shape of the dose curve; as a rule, active = well fitted inhibition curve with a large enough effect (not every such curve was filed as active); inconclusive = small, poorly fitted or top-dose-only effect, or another doubt; inactive = no such curve, though single readings can be large or run the other way. Potencies of inconclusive entries are doubtful fits and often do not repeat.
# Molecular target: Lysine-specific demethylase 4E (Homo sapiens) (UniProt B2RXH2)
# Assay: qHTS Assay for Inhibitors of Human Jumonji Domain Containing 2E (JMJD2E)
# Conditions: JMJD2E catalytic domain, FDH-coupled NADH fluorescence (FDH is formaldehyde dehydrogenase); series mostly up to 57.1 µM; activity change, negative = inhibition: at the top concentration
# Also: nearly all actives have a fitted effect of over 50% in size.
# 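For activity change, negative = inhibition in this document: 0% = wells with enzyme and -100% = buffer wells without enzyme.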
# Potency is read from the fitted curve at half-maximal effect; tags tell the direction and shape of the fitted curve.
# Sequence of UniProt B2RXH2 (B2RXH2 whole entry, looked up, the tested form may be a part): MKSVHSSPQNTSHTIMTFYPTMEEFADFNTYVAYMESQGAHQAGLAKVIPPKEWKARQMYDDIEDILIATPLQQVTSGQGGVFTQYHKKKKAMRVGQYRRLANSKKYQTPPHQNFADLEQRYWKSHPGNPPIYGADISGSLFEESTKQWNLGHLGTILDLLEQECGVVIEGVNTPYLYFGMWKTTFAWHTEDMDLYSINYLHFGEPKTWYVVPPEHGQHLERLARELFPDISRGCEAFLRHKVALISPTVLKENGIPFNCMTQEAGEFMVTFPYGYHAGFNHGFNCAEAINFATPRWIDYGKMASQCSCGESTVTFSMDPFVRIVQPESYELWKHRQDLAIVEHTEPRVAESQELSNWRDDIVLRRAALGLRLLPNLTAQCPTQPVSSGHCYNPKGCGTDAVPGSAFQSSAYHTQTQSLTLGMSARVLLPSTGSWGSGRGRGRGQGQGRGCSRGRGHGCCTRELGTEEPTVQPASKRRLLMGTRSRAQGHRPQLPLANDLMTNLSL
SMILES,"activity change, negative = inhibition",Potency
COc1ccc(OC/C(O)=C(\C#N)c2nc3ccccc3[nH]2)cc1,inactive: 2.97%,–
CCOC(=O)C1Cn2c(nc3c(c2=O)C(C)(CC)Cc2ccccc2-3)S1 (stereo not drawn),–,"inconclusive: 22.4 µM [inhibitor, partial curve]"
CC1(C)S[C@@H]2[C@H](NC(=O)[C@H](N)c3ccc(O)cc3)C(=O)N2[C@H]1C(=O)O,–,"inconclusive: 31.6 µM [inhibitor, single point]"
CCc1nnc(NC(=O)c2ccc(S(=O)(=O)N3CCCc4ccccc43)cc2)o1,–,"inconclusive: 39.8 µM [inhibitor, single point]"
N#CSCC(=O)c1cccc2ccccc12,inactive: 1.56%,–
CCCCN(CC)Cc1c(O)ccc2c(-c3ccccc3)cc(=O)oc12,–,"inconclusive: 35.5 µM [inhibitor, single point]"
CCOC(=O)N1CCN(S(=O)(=O)c2cc([N+](=O)[O-])ccc2C)CC1,inactive: 2.8%,–
c1ccc2c(c1)[nH]c1c(N3CCOCC3)ncnc12,–,"inconclusive: 35.5 µM [inhibitor, partial curve]"
CNC(=S)N1N=C(c2ccc(OC)cc2)CC1c1ccccc1Cl (stereo not drawn),–,"inconclusive: 39.8 µM [inhibitor, single point]"
O=C(/C=C/c1ccccc1)c1ccc(O[C@H]2OC(CO)C(O)C(O)C2O)cc1O (stereo partly drawn),inactive: 1.69%,–
COC(=O)[C@@]1(Cc2ccc(OC)cc2)[C@H]2c3cc(C(=O)N4CCCC4)n(Cc4c(CO)[nH]cc(C)c4=O)c3C[C@H]2CN1C(=O)c1ccccc1,–,"inconclusive: 35.5 µM [inhibitor, single point]"
CCOC(=O)C1=C(C)NC2=C(C(=O)CCC2)C1c1cccs1 (stereo not drawn),–,"inconclusive: 28.2 µM [inhibitor, partial curve]"
C=CCNC(=S)/N=c1/ccccn1CCC,inactive: -10.1%,–
Cn1cnc2c(NCc3ccccc3)nc(NCCO)nc21,–,"inconclusive: 25.1 µM [inhibitor, partial curve, poor fit]"
CCN(CC)S(=O)(=O)c1ccc(NC(=O)c2cc(-c3ccccc3)nc3ccccc23)cc1,–,"inconclusive: 35.5 µM [inhibitor, single point]"
O=C(O)CNC(=O)c1ccccc1F,–,"inconclusive: 39.8 µM [inhibitor, single point]"
CC(C)c1nc2oc3c(NCC4CCCO4)ncnc3c2c2c1COC(C)(C)C2 (stereo not drawn),–,"inconclusive: 1.58 µM [inhibitor, partial curve]"
Cc1ccccc1/C=C/c1nc2ccccc2c(=O)n1CCc1ccccc1,–,"inconclusive: 15.8 µM [inhibitor, single point]"
Cc1c(CCOC(=O)CC23CC4CC(CC(C4)C2)C3)sc[n+]1CC(=O)c1ccc(Br)cc1,inactive: 3.24%,–
Cc1ccc(NC(=O)Cn2c(=O)cnc3ccccc32)cc1S(=O)(=O)N(C)C,–,"inconclusive: 35.5 µM [inhibitor, single point]"
C=CCn1cc(-c2ccccc2)cc(C#N)c1=O,–,"inconclusive: 31.6 µM [inhibitor, partial curve]"
C=CCOC(=O)NC(c1ccc(F)c(F)c1)C(C(=O)CCl)C(=O)OC (stereo not drawn),inactive: 8.65%,–

SMILES,"activity change, negative = inhibition",Potency
CN(C)C(CNC(=O)CCCOc1ccccc1)c1ccco1 (stereo not drawn),–,"inconclusive: 39.8 µM [inhibitor, single point]"
COc1cc(OC)c2c(N)c(C#N)c(C(F)(F)C(F)(F)F)nc2c1,–,"inconclusive: 28.2 µM [inhibitor, partial curve]"
O=c1cccccc1NN=C1CCCCC1,inactive: -23.2%,–
NCc1ccc(-c2nc3ccccc3o2)cc1,–,"inconclusive: 28.2 µM [inhibitor, partial curve]"
Cc1cc(OCCOCCNC(C)C)cc(C)c1Cl,–,"inconclusive: 39.8 µM [inhibitor, single point]"
O=C1C2CC=C(Cl)CC2C(=O)N1CCC[n+]1cccc2ccccc21 (stereo not drawn),–,"inconclusive: 39.8 µM [inhibitor, single point]"
Cc1ccc(CNC(=O)CCc2c(C)nc3c(c(C)nn3-c3ccc(C)cc3)c2C)cc1,inactive: 2.32%,–
CC(=O)Nc1ccc(-n2nnnc2SCC(=O)Nc2cccc(NC(=O)c3ccco3)c2)cc1,–,"inconclusive: 35.5 µM [inhibitor, single point]"
COC(=O)c1ccccc1NC(=S)NC(=O)COc1ccc(C(C)C)cc1,inactive: 0.579%,–
COc1ccc(-c2cccc(C3CC=CC4C3C(=O)N(Cc3ccccc3)C4c3ccc(OC)c(Cl)c3)c2)cc1 (stereo not drawn),–,"inconclusive: 31.6 µM [inhibitor, single point]"
O=C(COC(=O)[C@H](Cc1c[nH]c2ccccc12)NC(=O)c1ccc(Cl)cc1)Nc1ccc2c(c1)OCO2,inactive: 5.13%,–
COc1ccc(OC)c(/C=C/C(=O)N2C(=O)c3cccc(N)c3C2=O)c1,–,"inconclusive: 35.5 µM [inhibitor, partial curve]"
Cc1ccc2c(c1)[nH]c1c(N3CCN(Cc4ccc5c(c4)OCO5)CC3)ncnc12,–,"inconclusive: 22.4 µM [inhibitor, single point]"
CC(C)(C)NC(=O)COc1ccc(CNc2ccc3[nH]c(=O)[nH]c3c2)cc1,–,"inconclusive: 35.5 µM [inhibitor, partial curve]"
CCCN(CCC)CCCNC(=O)CC1Nc2ccccc2NC1=O (stereo not drawn),–,"inconclusive: 25.1 µM [inhibitor, partial curve]"
CCOC(=O)c1sc(-c2ccccc2)cc1NC(=O)CSc1nnnn1C,–,"inconclusive: 25.1 µM [inhibitor, partial curve]"
Cc1cc(C)nc(N/N=C/c2c(C)oc3ccccc23)n1,–,"inconclusive: 39.8 µM [inhibitor, single point]"
COc1ccc(C2C(C(=O)c3ccccc3)N3c4ccccc4C=CC3C2[N+](=O)[O-])cc1 (stereo not drawn),inactive: -16.1%,–
CSc1nn2cc(CCN3CCOCC3)c(-c3ccc(F)cc3)nc2c1C#N,–,"inconclusive: 28.2 µM [inhibitor, partial curve]"
OC(COc1cccc2ccccc12)CN1CCN(c2ccccn2)CC1 (stereo not drawn),–,"inconclusive: 39.8 µM [inhibitor, single point]"
COCCn1nnnc1C(C(C)C)N(Cc1ccccc1)Cc1cc2cc(OC)ccc2[nH]c1=O (stereo not drawn),–,"inconclusive: 35.5 µM [inhibitor, partial curve]"
